Some of the results follow.
Each molecule was assayed on HSkMC (human skeletal muscle cells) (assay: cytotoxicity call (relative viability < 0.9)). Conditions: 10 µM.

Row | SMILES | cytotoxicity call
1 | NC/C=C\C(=O)O | inactive
2 | CNC(=O)CN1CCOC[C@@]2(C1)CN(Cc1ccn(C)n1)CCO2 | inactive
3 | CCCC[C@@H](CC)COc1ccc(-c2nc(-c3ccc(OC)cc3)nc(-c3ccc(OC[C@@H](CC)CCCC)cc3O)n2)c(O)c1 | inactive
4 | CN1CCc2cccc3c2C1Cc1ccc(O)c(O)c1-3.Cl (stereo not given) | inactive
5 | C[C@H]1CN([C@@H](C)CO)C(=O)c2cc(C#CCN(C)C)cnc2O[C@H]1CN(C)Cc1ccc(C(=O)O)cc1 | inactive
6 | C[C@@H]1CN([C@@H](C)CO)C(=O)c2cccc(NS(=O)(=O)c3cn(C)cn3)c2O[C@@H]1CN(C)Cc1ccccc1 | inactive
7 | CCCCNc1ccc(C(=O)OCCN(C)C)cc1.Cl | inactive
8 | Cc1noc(C)c1NC(=O)N(C)C[C@H]1Oc2ccc(NC(=O)Nc3ccc(C(F)(F)F)cc3)cc2CC(=O)N([C@@H](C)CO)C[C@H]1C | inactive
9 | Cc1cc(O)c(C(C)C)cc1Cl | inactive
10 | C[C@@H]1CCCCO[C@H](CN(C)C(=O)Nc2ccccc2)[C@H](C)CN([C@H](C)CO)C(=O)c2cc(NC(=O)Nc3ccc(C(F)(F)F)cc3)ccc2O1 | inactive
11 | C[C@@H]1CCCCO[C@@H](CN(C)C(=O)C2CCCCC2)[C@H](C)CN([C@H](C)CO)C(=O)c2cc(NC(=O)CCC(F)(F)F)ccc2O1 | inactive
12 | COc1ccc(CNC(=O)C[C@H]2CC[C@H]3[C@H](COc4ccc(NC(=O)C(C)C)cc4C(=O)N3C)O2)cc1 | inactive
13 | CC1(C)SCN(S(=O)(=O)c2ccccc2)[C@@H]1C(=O)N[C@@H](CNC(=O)NCc1ccccc1)C(=O)O | inactive
14 | C[C@@H]1CN([C@@H](C)CO)C(=O)c2cc(NC(=O)Nc3ccccc3)ccc2O[C@@H](C)CCCCO[C@H]1CN(C)Cc1ccc(C(=O)O)cc1 | inactive
15 | NCCC[C@H](NC(=O)[C@@H]1CCCN1C(=O)[C@@H]1CSSC[C@H](N)C(=O)N[C@@H](Cc2ccc(O)cc2)C(=O)N[C@@H](Cc2ccccc2)C(=O)N[C@@H](CCC(N)=O)C(=O)N[C@@H](CC(N)=O)C(=O)N1)C(=O)NCC(N)=O | inactive
16 | COc1cc(/C=C/C(=O)CC2=N/C(=N/Cc3ccc4c(c3)OCO4)S[C@H](c3ccc(O)c(OC)c3)C2)ccc1O | inactive
17 | CN1CCN(C(=O)C[C@@H]2C=C[C@H](NC(=O)Nc3ccccc3F)[C@@H](CO)O2)CC1 | inactive
18 | COc1ccc(S(=O)(=O)N(C)C[C@H]2Oc3ccc(NS(=O)(=O)c4cccs4)cc3CC(=O)N([C@H](C)CO)C[C@H]2C)cc1 | inactive
19 | COc1cccc(C(=O)Nc2ccc3c(c2)C(=O)N(C)[C@@H]2CC[C@@H](CC(=O)NCC(F)(F)F)O[C@@H]2CO3)c1 | inactive
20 | C[C@H]1CCCCO[C@@H](CN(C)Cc2ccc(C(=O)O)cc2)[C@@H](C)CN([C@@H](C)CO)C(=O)c2cc(NS(=O)(=O)c3ccc(F)cc3)ccc2O1 | inactive

Row | SMILES | cytotoxicity call
21 | COc1ccc(CN(C)C[C@@H]2OCCCC[C@@H](C)Oc3ccc(NS(=O)(=O)c4c(C)noc4C)cc3C(=O)N([C@@H](C)CO)C[C@@H]2C)cc1 | inactive
22 | O=C(C[C@H]1C[C@H]2c3cc(NS(=O)(=O)c4ccc(F)cc4)ccc3O[C@H]2[C@@H](CO)O1)N1CCCCC1 | inactive
23 | Cc1cc(C(=O)Nc2cccc3c2O[C@@H](CN(C)Cc2ccccc2)[C@@H](C)CN([C@@H](C)CO)C3=O)n(C)n1 | inactive
24 | Cc1noc(C)c1NC(=O)N(C)C[C@H]1Oc2ccc(NS(=O)(=O)c3ccccc3)cc2CC(=O)N([C@@H](C)CO)C[C@H]1C | inactive
25 | C[C@@H]1CCCCO[C@@H](CN(C)C(=O)C2CCCCC2)[C@@H](C)CN([C@@H](C)CO)C(=O)c2cc(NC(=O)Nc3ccc(C(F)(F)F)cc3)ccc2O1 | inactive
26 | COc1ccc(CN(C)C[C@@H]2OCCCC[C@H](C)Oc3ccc(NS(=O)(=O)c4ccc(F)cc4)cc3C(=O)N([C@@H](C)CO)C[C@H]2C)cc1 | inactive
27 | C[C@H]1CN([C@@H](C)CO)C(=O)c2cc(NC(=O)Nc3ccc(F)cc3)ccc2O[C@H]1CN(C)Cc1ccc(C(=O)Nc2ccccc2N)cc1 | inactive
28 | COC(=O)c1c2oc(c1C(=O)OC)C(=O)N[C@@H](Cc1ccccc1)Cn1cc(nn1)[C@@H](Cc1ccccc1)NC(=O)N[C@@H](COC(=O)NCCCCCC(=O)NO)CC2 | inactive
29 | C[C@@H]1CN([C@H](C)CO)C(=O)c2cc(NC(=O)Nc3cccc4ccccc34)ccc2O[C@@H]1CN(C)Cc1ccccc1 | inactive
30 | COc1ccc(NC(=O)Nc2ccc3c(c2)C(=O)N([C@H](C)CO)C[C@H](C)[C@@H](CN(C)S(=O)(=O)c2cccs2)OCCCC[C@@H](C)O3)cc1 | inactive
31 | CC[C@H](C)[C@H]1O[C@]2(C=C[C@@H]1C)C[C@@H]1C[C@@H](C/C=C(\C)[C@@H](O[C@H]3C[C@H](OC)[C@@H](O[C@H]4C[C@H](OC)[C@@H](NC(C)=O)[C@H](C)O4)[C@H](C)O3)[C@@H](C)/C=C/C=C3\CO[C@@H]4[C@H](O)C(C)=C[C@@H](C(=O)O1)[C@]34O)O2 | active
32 | COc1cccc(-c2cn(CC[C@H]3CC[C@H](NC(=O)CN(C)C)[C@@H](CO)O3)nn2)c1 | inactive
33 | C[C@@H]1CN([C@@H](C)CO)C(=O)c2cc(C#CCN(C)C)cnc2O[C@@H]1CN(C)C(=O)CN1CCOCC1 | inactive
34 | COc1ccc(cc1)CN1C[C@]2(CCN(CC2)S(=O)(=O)c2cn(cn2)C)c2c([nH]c3cc(ccc23)OC)[C@H]1CO | inactive
35 | C[C@H](CO)N1C[C@H](C)[C@H](CN(C)C(=O)Cc2cccnc2)Oc2cc(C#Cc3ccccc3F)ccc2S1(=O)=O | inactive
36 | Cc1noc(C)c1NC(=O)Nc1ccc2c(c1)C(=O)N([C@H](C)CO)C[C@H](C)[C@@H](CN(C)Cc1ccc(C(=O)O)cc1)OCCCC[C@@H](C)O2 | inactive
37 | C[C@H]1CCCCO[C@H](CN(C)C(=O)Nc2ccc3c(c2)OCO3)[C@@H](C)CN([C@@H](C)CO)C(=O)c2cc(NC(=O)C3CCCCC3)ccc2O1 | inactive
38 | C[C@H](CO)N1C[C@H](C)[C@H](CN(C)S(=O)(=O)c2cn(C)cn2)Oc2cc(C#Cc3ccc(F)cc3)ccc2S1(=O)=O | inactive
39 | CCCCNC(=O)NS(=O)(=O)c1ccc(C)cc1 | inactive
40 | Cc1ccc(S(=O)(=O)Nc2ccc3c(c2)C(=O)N([C@H](C)CO)C[C@H](C)[C@@H](CN(C)C(=O)Nc2ccc(F)cc2)OCCCC[C@H](C)O3)cc1 | inactive
